These are yes or no findings as the source states them, for the method shown. For some assays here: In cells and extracts the contact can be indirect. Some results given as binding are weak or reduced against the parent protein; the word gives no strength. For some assays here: Sequences can lack the tags named with a protein.

Protein sequences, listed by entry. Tags and fused reporters are not part of them. Lines headed by an entry give the natural chain unless they say otherwise; changes in a name come on top.
UniProt P01024: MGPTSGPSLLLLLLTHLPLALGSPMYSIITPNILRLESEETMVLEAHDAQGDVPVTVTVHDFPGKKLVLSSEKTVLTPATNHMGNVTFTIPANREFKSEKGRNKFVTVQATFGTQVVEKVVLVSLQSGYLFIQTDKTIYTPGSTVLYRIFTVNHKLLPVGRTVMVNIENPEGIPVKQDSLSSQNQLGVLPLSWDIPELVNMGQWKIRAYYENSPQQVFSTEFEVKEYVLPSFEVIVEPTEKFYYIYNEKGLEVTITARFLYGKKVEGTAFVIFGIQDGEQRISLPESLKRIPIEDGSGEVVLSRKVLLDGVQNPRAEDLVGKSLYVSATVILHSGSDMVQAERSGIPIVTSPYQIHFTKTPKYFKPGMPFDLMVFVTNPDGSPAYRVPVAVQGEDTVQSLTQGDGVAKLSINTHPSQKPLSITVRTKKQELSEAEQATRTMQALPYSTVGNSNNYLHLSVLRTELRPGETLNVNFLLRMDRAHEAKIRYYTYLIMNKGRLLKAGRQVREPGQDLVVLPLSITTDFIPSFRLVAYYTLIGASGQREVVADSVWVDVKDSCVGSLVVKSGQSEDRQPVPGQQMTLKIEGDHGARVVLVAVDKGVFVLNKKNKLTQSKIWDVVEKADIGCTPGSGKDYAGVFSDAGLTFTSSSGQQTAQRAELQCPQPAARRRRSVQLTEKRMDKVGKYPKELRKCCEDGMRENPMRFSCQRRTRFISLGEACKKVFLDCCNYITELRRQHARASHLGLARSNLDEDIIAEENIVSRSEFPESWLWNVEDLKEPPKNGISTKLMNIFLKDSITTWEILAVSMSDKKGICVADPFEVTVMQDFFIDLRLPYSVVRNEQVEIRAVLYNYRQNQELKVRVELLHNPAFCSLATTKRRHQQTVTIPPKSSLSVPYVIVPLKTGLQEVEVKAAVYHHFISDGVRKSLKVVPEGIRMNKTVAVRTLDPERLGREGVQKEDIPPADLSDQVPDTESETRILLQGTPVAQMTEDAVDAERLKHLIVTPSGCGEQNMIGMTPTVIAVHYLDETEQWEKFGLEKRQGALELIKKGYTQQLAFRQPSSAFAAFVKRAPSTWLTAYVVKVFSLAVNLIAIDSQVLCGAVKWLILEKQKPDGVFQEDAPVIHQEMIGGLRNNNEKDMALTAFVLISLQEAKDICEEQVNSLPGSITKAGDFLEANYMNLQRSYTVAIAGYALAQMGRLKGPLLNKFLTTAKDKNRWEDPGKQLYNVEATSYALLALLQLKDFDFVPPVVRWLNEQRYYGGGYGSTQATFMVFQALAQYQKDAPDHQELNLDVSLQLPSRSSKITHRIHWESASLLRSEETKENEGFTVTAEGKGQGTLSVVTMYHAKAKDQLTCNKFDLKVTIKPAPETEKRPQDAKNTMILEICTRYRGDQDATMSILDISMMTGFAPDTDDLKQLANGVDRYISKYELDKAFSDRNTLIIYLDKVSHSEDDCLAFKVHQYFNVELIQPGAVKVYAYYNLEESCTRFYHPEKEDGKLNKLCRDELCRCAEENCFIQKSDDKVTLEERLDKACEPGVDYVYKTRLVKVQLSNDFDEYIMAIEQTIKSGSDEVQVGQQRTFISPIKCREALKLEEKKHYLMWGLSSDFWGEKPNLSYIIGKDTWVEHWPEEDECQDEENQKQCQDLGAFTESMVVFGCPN
UniProt Q16576: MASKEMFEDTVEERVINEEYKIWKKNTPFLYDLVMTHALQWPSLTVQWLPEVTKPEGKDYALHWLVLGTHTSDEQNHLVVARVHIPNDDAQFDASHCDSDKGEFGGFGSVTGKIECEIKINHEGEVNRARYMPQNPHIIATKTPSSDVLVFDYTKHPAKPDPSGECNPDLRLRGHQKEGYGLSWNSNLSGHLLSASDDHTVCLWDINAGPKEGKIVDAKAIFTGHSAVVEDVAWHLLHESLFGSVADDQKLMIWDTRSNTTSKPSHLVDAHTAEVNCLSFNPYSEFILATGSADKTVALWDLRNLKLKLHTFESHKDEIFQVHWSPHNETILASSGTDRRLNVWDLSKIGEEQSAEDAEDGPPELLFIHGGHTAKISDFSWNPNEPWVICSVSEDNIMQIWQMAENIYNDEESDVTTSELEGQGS
UniProt Q09028: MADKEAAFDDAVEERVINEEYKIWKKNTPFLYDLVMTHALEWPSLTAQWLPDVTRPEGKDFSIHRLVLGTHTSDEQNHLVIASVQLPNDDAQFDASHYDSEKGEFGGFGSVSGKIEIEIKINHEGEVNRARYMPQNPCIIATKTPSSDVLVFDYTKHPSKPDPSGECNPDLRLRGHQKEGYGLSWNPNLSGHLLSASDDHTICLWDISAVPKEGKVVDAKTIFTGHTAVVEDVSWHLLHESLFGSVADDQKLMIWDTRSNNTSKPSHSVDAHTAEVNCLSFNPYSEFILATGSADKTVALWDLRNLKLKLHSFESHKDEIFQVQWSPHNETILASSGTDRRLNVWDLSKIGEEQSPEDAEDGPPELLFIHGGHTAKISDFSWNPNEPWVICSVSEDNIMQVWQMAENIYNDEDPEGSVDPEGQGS
UniProt Q13547: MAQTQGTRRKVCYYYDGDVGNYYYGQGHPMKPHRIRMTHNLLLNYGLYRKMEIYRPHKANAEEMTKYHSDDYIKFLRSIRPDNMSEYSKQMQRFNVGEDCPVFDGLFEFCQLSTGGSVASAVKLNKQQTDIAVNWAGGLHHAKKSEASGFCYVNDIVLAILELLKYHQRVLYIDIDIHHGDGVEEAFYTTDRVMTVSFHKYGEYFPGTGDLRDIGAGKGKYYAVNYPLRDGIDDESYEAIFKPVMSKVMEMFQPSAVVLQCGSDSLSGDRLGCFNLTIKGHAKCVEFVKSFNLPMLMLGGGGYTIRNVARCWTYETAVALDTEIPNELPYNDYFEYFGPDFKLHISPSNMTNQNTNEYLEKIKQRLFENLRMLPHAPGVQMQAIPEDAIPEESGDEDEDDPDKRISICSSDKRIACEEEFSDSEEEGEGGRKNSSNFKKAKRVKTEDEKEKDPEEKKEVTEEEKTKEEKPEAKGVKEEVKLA
UniProt Q92769: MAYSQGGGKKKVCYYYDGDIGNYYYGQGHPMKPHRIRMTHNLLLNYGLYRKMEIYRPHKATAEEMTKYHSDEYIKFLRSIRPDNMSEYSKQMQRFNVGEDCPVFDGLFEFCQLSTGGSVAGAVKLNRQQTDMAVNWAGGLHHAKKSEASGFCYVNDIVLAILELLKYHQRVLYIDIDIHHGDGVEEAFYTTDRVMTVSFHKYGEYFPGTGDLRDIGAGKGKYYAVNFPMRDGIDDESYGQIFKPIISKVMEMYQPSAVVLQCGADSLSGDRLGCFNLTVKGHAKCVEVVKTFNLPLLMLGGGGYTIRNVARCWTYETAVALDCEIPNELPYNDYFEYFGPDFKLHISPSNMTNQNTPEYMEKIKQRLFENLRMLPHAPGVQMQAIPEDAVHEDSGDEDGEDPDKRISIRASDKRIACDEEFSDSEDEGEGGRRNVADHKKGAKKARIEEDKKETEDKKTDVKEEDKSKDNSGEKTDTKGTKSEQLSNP
UniProt Q14839: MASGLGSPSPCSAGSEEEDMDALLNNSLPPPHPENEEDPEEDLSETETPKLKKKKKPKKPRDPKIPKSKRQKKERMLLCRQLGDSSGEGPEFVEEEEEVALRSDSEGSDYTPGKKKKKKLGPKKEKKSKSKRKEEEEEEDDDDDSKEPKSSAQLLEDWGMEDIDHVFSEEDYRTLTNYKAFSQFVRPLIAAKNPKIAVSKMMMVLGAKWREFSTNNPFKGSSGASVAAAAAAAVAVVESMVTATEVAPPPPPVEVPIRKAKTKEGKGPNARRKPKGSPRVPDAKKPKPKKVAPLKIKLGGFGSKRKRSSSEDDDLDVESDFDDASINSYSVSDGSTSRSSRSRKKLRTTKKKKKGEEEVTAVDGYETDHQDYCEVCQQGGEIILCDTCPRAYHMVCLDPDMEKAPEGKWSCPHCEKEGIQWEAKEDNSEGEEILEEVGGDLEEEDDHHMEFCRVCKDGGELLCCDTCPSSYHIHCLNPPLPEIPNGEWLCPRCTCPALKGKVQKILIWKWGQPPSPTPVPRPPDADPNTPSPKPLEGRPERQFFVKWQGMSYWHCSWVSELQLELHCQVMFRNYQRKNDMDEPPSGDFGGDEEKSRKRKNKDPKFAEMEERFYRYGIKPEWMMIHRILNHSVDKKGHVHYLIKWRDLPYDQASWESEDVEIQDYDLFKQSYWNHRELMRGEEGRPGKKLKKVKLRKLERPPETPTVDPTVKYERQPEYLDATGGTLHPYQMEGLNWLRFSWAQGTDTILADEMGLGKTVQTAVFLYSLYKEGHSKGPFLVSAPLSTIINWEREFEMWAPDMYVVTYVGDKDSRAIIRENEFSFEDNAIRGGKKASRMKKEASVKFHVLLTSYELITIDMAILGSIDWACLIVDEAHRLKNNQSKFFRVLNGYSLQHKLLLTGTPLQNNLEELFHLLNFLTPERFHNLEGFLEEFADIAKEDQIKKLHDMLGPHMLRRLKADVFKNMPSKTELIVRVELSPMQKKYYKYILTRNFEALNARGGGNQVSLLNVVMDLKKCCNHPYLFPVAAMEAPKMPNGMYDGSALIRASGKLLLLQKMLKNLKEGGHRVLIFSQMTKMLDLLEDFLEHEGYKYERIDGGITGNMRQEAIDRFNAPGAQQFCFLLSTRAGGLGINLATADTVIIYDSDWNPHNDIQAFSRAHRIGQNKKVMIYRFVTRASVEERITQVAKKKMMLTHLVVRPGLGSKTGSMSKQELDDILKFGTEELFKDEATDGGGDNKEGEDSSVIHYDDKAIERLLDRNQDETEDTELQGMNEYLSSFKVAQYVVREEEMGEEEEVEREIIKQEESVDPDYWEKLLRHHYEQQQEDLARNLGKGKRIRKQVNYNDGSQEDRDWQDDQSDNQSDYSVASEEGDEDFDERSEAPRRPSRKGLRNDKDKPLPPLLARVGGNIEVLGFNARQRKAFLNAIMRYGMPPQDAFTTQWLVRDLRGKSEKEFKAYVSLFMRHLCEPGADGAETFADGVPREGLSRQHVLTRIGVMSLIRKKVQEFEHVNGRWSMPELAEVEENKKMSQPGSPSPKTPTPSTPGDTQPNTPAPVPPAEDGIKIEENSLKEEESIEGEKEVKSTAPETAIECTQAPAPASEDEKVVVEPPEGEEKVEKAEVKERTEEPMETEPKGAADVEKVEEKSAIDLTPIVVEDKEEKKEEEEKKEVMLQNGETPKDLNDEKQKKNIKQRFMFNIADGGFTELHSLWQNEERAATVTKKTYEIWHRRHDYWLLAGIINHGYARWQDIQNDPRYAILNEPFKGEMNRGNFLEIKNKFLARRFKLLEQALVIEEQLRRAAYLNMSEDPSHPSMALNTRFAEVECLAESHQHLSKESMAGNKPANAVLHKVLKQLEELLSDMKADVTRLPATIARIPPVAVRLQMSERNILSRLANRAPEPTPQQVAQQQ
UniProt Q15022: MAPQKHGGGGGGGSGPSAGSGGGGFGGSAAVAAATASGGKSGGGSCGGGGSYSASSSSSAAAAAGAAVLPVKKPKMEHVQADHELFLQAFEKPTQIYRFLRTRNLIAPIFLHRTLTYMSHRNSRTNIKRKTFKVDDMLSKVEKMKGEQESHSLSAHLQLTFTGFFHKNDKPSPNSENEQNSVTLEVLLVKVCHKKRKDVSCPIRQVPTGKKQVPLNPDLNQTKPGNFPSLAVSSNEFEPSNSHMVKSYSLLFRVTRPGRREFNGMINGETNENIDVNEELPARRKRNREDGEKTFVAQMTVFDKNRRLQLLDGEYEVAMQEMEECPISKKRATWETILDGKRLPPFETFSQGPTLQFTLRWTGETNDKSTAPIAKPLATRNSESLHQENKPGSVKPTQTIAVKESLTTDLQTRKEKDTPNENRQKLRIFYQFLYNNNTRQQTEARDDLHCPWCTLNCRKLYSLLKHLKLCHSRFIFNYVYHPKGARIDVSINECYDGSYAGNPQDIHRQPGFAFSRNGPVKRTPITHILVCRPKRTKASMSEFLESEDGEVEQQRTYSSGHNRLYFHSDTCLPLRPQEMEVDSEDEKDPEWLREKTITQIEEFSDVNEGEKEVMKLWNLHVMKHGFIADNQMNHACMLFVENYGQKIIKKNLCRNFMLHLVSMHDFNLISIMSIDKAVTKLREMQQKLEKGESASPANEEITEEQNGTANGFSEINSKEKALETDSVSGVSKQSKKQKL

Experiment [1] addresses complement C3b, the activated fragment of complement component 3 (nuclear C3b of A549-PTX cells) (human (endogenous in A549)) (UniProt P01024). Description: co-IP; endogenous proteins of A549-PTX cells; IP with anti-C3/C3b antibody (Fig. 4C, F) or anti-RBBP4/7 antibodies (Fig. 4D), immunoblotting with the indicated antibodies. A general note: Immunoblotting shows a protein as a band on a membrane.

The target is the same in experiment [2]. In words: SEC; nuclear proteins extracted from A549-PTX cells fractionated by size exclusion gel chromatography; fractions immunoblotted. Background: In gel filtration, larger molecules generally elute earlier.
In experiment [3] the target is RBBP7 (human (endogenous in A549)) (UniProt Q16576). Description: co-IP; endogenous proteins of A549-PTX cells; IP with anti-C3/C3b antibody (Fig. 4C, F) or anti-RBBP4/7 antibodies (Fig. 4D), immunoblotting with the indicated antibodies.
The target of experiment [4] is RBBP4 (human (endogenous in A549)) (UniProt Q09028). Described as above.
A further experiment deals with T1, GST-tagged SAP18 (UniProt O00422).
T1 sequence: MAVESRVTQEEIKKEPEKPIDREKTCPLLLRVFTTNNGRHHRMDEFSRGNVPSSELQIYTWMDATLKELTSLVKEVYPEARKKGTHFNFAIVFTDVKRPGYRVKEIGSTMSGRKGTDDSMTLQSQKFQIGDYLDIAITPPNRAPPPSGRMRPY
Description: pull-down; supernatant of E. coli Rosetta (DE3) expressing the GST-tagged protein incubated with glutathione agarose resin 3 h at 4 °C, then purified C3b 4 h at 4 °C; washed with PBST (0.02% Tween-20 in PBS); immunoblot; only the binder purified.

In the next experiment the target is GST-tagged HDAC1 (UniProt Q13547). The experiment is described as above.
The target in another experiment is T2, GST-tagged ING2 (UniProt Q9H160).
T2 sequence: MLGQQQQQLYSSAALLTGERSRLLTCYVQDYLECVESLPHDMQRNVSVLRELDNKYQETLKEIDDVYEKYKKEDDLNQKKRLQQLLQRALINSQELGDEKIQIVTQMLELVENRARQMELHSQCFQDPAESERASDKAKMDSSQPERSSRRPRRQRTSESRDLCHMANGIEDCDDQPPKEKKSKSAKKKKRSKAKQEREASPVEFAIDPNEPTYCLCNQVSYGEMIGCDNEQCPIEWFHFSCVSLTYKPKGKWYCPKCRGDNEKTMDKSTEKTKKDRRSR
The description is as above.

The next experiment addresses GST-tagged HDAC2 (UniProt Q92769). Described as above.
In the next experiment the target is purified GST-RBBP4 (UniProt Q09028). In words: pull-down; purified GST-RBBP4 or His-Sumo-RBBP7 incubated with glutathione agarose resin 3 h at 4 °C, then purified C3b 4 h at 4 °C; washed with PBST (0.02% Tween-20 in PBS); immunoblot; both purified.
In another experiment the target is His-Sumo-RBBP7 (UniProt Q16576). The description is as above.
Experiment [5] addresses complement C3b, the activated fragment of complement component 3 (nuclear C3b of A549-PTX cells) (human (endogenous in A549)) (UniProt P01024). Description: co-IP; endogenous proteins of A549-PTX cells; IP with anti-C3/C3b antibody (Fig. 4C, F) or anti-RBBP4/7 antibodies (Fig. 4D), immunoblotting with the indicated antibodies. The source holds these as a separate data set.

As to CHD4 (from UniProt Q14839 1-1912), the binding entry in experiment [1] is recorded as “no binding”.

On to HDAC1 (from UniProt Q13547 1-482), for which the binding result in [1] and in experiment [2] was “binds” in each case.

As for HDAC2 (from UniProt Q92769 1-488), the binding entry in [1] and in [2] was “binds” throughout.

On to RBBP4 (from UniProt Q09028 1-425), for which the binding entry in [1] and in experiment [2] was “binds” in each case.

Turning to SUZ12 (from UniProt Q15022 1-739), the binding entry in [1] is “no binding”.

Regarding “complement C3b, the activated fragment of complement component 3 (nuclear C3b of A549-PTX cells) (from UniProt P01024 23-667; P01024 749-1663)”, the binding entry in experiment [3] and in experiment [4] was “binds” each time.

Turning to “purified complement component 3b (from UniProt P01024 23-667; P01024 749-1663)”, the binding entry with GST-tagged SAP18, in the experiment with GST-tagged HDAC1, with GST-tagged ING2, in the experiment with GST-tagged HDAC2, with purified GST-RBBP4 and with His-Sumo-RBBP7 was “binds” each time.

B1: SAP18 (protein, UniProt O00422 1-153)
chain: T1 sequence
For B1, the binding entry in [2] and in experiment [5] was “binds” in each case.

B2: ING2 (protein, UniProt Q9H160 1-280)
chain: T2 sequence
As for B2, the binding entry in [2] and in experiment [5] was “binds” throughout.

B3: SDS (subunit of the SIN3A complex) (protein, UniProt Q9H7L9 1-328)
chain: MSAAGLLAPAPAQAGAPPAPEYYPEEDEELESAEDDERSCRGRESDEDTEDASETDLAKHDEEDYVEMKEQMYQDKLASLKRQLQQLQEGTLQEYQKRMKKLDQQYKERIRNAELFLQLETEQVERNYIKEKKAAVKEFEDKKVELKENLIAELEEKKKMIENEKLTMELTGDSMEVKPIMTRKLRRRPNDPVPIPDKRRKPAPAQLNYLLTDEQIMEDLRTLNKLKSPKRPASPSSPEHLPATPAESPAQRFEARIEDGKLYYDKRWYHKSQAIYLESKDNQKLSCVISSVGANEIWVRKTSDSTKMRIYLGQLQRGLFVIRRRSAA
On to B3, for which the binding result in experiment [5] is “binds”.

B4: SAP30 (protein, UniProt O75446 1-220)
chain: MNGFTPDEMSRGGDAAAAVAAVVAAAAAAASAGNGTGAGTGAEVPGAGAVSAAGPPGAAGPGPGQLCCLREDGERCGRAAGNASFSKRIQKSISQKKVKIELDKSARHLYICDYHKNLIQSVRNRRKRKGSDDDGGDSPVQDIDTPEVDLYQLQVNTLRRYKRHFKLPTRPGLNKAQLVEIVGCHFRSIPVNEKDTLTYFIYSVKNDKNKSDLKVDSGVH
Turning to B4, the binding entry in [2] and in [5] was “binds” each time.

Source of the values: publication PMC10250389.
